{"source": "the RNAGym collection of RNA variant scans (doi:10.7554/elife.90254)", "parents": {"B1": {"name": "LINE1-full (parent)", "chain": "UACGUAGGUGGUUUUCCCCUGAUAGUGCUAAGGGGGCCUGGAAGUUUGGACUGGGCAGAGCUCAACACAGCGUGGCAAAGUGGCUGUGGCUAGACUGCCUCUCUGGAUUCCUCGUCACUCAGCAGGGCAUCUCUGAGAGAAAUGCC"}}, "note": "The source gives no read counts; variants with many changes may rest on few reads.", "data": [{"variants_of": "B1", "assay": "self-cleavage, relative activity (ratio to wild type); higher = more cleavage; in vitro, sequencing; the parent is a self-cleaving ribozyme", "values": [{"variant": "U13G A67G U96C", "self-cleavage": 0}, {"variant": "U14A U47C G55C U87A", "self-cleavage": 0.02}, {"variant": "U13C U14C U15A A22G U29A C38A A64C", "self-cleavage": 0.22}, {"variant": "U13C U47A A59G", "self-cleavage": 0.11}, {"variant": "U14C A30G A69G", "self-cleavage": 0}, {"variant": "U13C U52C A78G U109C C118U", "self-cleavage": 0.8}, {"variant": "U13C U20C C28U U39C G48U U96A", "self-cleavage": 0.06}, {"variant": "U13C G72A G93A U109C A142G", "self-cleavage": 0.02}, {"variant": "U13C U45C A117G", "self-cleavage": 1.38}, {"variant": "U14C A22G G33A A69U U81G A136G", "self-cleavage": 0.57}, {"variant": "U14A G36A U115A A138G", "self-cleavage": 0.82}, {"variant": "U14C A31U U62C", "self-cleavage": 0.09}, {"variant": "U13C G32U U46C A69G G122A", "self-cleavage": 0.92}, {"variant": "U14C A30G G32A", "self-cleavage": 1.84}, {"variant": "U13C U47C A57G U73A", "self-cleavage": 0.71}, {"variant": "U13G A64G A94G", "self-cleavage": 0}, {"variant": "U14C A43G A117G", "self-cleavage": 1.67}, {"variant": "U14A G32A U132C", "self-cleavage": 1}, {"variant": "U13C G32U A43G A142G", "self-cleavage": 0.98}, {"variant": "U14C A22U A129C A136G A141G", "self-cleavage": 0.98}, {"variant": "U13C C38U U109G A138G U143A", "self-cleavage": 0.25}, {"variant": "U14C A42G U87A A117C U143A", "self-cleavage": 0.27}, {"variant": "U13C U62C A117G U132C A140G", "self-cleavage": 0}, {"variant": "U13C U52A G72A A107G", "self-cleavage": 1.21}, {"variant": "U13C G48A U85G A136C A141G", "self-cleavage": 0.33}, {"variant": "U14A A94G A124G", "self-cleavage": 0.15}, {"variant": "U14A U39A U100C", "self-cleavage": 2.12}, {"variant": "U13C U20A U45C U52C A124G", "self-cleavage": 0}, {"variant": "U13C U23C A140C", "self-cleavage": 1.37}, {"variant": "U14A A43G U91C A141G", "self-cleavage": 0.62}, {"variant": "U13C U96C U112C", "self-cleavage": 0.33}, {"variant": "U14A U102A A138G", "self-cleavage": 1.46}, {"variant": "U13C U45C U47C A136G", "self-cleavage": 0.86}, {"variant": "U13C U81C U134C", "self-cleavage": 1.04}, {"variant": "U14A U87A G106A", "self-cleavage": 0}, {"variant": "U14A C38U U112A", "self-cleavage": 0.79}, {"variant": "U14C A22G U45C", "self-cleavage": 0.92}, {"variant": "U13C U73A U100C", "self-cleavage": 2.21}, {"variant": "U13C U26C A64U A117G", "self-cleavage": 1.84}, {"variant": "U13C U14C U15C A129U U132C", "self-cleavage": 1.48}, {"variant": "U13C U46C A64G A142G", "self-cleavage": 1.31}, {"variant": "U13C G48A A136G", "self-cleavage": 1.12}, {"variant": "U13G C37G A57G A67G C98U U109C A117U", "self-cleavage": 0}, {"variant": "U14A U62A A79G", "self-cleavage": 0.05}, {"variant": "U13C U15C G21A", "self-cleavage": 1.77}, {"variant": "U13C U39C G114A", "self-cleavage": 0}, {"variant": "U14A A50G U52G", "self-cleavage": 0.79}, {"variant": "U13C G53U U73C A107G", "self-cleavage": 0}, {"variant": "U13C G35A A69C C76U", "self-cleavage": 0.02}, {"variant": "U13C G32A A138G", "self-cleavage": 0.67}, {"variant": "U13C U47C A140G", "self-cleavage": 1.5}, {"variant": "U13C U20A G75A G114A A121U", "self-cleavage": 0.5}, {"variant": "U13C U81A A117U", "self-cleavage": 1.45}, {"variant": "U13C C19U U46A G80A A142G", "self-cleavage": 1.66}, {"variant": "U13C U112C A140G", "self-cleavage": 0.55}, {"variant": "U13C C38A C71U", "self-cleavage": 1}, {"variant": "U13C U20C G36A U39C U85A", "self-cleavage": 0.19}, {"variant": "U13C G60A A69U U102C A140G", "self-cleavage": 0.02}, {"variant": "U14A C76U A129U", "self-cleavage": 2.53}, {"variant": "U14A U81C U132C", "self-cleavage": 0.81}, {"variant": "U14C A42G U62A A65G U102A", "self-cleavage": 0}, {"variant": "U14A U45C G53A U100A U108C", "self-cleavage": 0.64}, {"variant": "U14A A50U U108C", "self-cleavage": 2}, {"variant": "U13C U15C G33U U46C C113A A142G", "self-cleavage": 1.24}, {"variant": "U13C U29C A79G A124U U130C", "self-cleavage": 1.02}, {"variant": "U13C U47C A142U", "self-cleavage": 1.16}, {"variant": "U13C C56U U104C A129G U132C", "self-cleavage": 0.4}, {"variant": "U14A A67C U85C", "self-cleavage": 0.08}, {"variant": "U13G U15C A57U", "self-cleavage": 0.17}, {"variant": "U13C U15A G34A A129G", "self-cleavage": 1.66}, {"variant": "U14C A30U C98A A142G", "self-cleavage": 0.14}, {"variant": "U13C U47C G89A", "self-cleavage": 0.13}, {"variant": "U14A U29A U52C A69U A77G G105U", "self-cleavage": 0.19}, {"variant": "U13C G35U U73A A140G", "self-cleavage": 1.17}, {"variant": "U14C A31G U85A U108C", "self-cleavage": 0.71}, {"variant": "U13C U47A U73A", "self-cleavage": 1.2}, {"variant": "U14C A22U U104C U130C", "self-cleavage": 1.93}, {"variant": "U13C U134A A138G", "self-cleavage": 1.7}, {"variant": "U13C C37U A124U", "self-cleavage": 1.1}, {"variant": "U13C U108C U115A A138G A140G", "self-cleavage": 1.6}, {"variant": "U13C G35C U39C A59U U115C G139U", "self-cleavage": 0.68}, {"variant": "U13C U20C A22G U115C A117U", "self-cleavage": 1.57}, {"variant": "U13C U85C U96A A117U A142C", "self-cleavage": 0.08}, {"variant": "U14C A24G A67G", "self-cleavage": 0}]}]}
